We go through two molecules from patent US20100003267A1.

The experiment addresses recombinant human VEGF165 (human) (UniProt P15692). Description: competition ELISA: inhibits rhVEGF165 binding to coated VEGFR2/Fc.
UniProt P15692, sequence (P15692 other isoform, or with tags, fused parts or gaps limits assumed): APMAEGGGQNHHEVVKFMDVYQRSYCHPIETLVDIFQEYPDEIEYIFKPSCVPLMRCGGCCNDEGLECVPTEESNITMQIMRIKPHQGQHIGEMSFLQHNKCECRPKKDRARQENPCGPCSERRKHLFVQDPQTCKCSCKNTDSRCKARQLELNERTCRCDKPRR

B1: Compound 6001 (protein, part only; not given: Ang2-binding peptide, part only)
light: ELQMTQSPSSLSASVGDRVTITCRSSQSLLHTYGSPYLNWYLQKPGQSPKLLIYKVSNRFSGVPSRFSGSGSGTDFTLTISSLQPEDFAVYFCSQGTHLPYTFGGGTKVEIKRTVAAPSVFIFPPSDEQLKSGTASVVCLLNNFYPREAKVQWKVDNALQSGNSQESVTEQDSKDSTYSLSSTLTLSKADYEKHKVYACEVTHQGLSSPVTKSFNRGEC
heavy: EVQLVESGGGLVQPGGSLRLSCAASGFTFSNYWMSWVRQSPEKGLEWVSEIRLRSDNYATHYAESVKGRFTISRDNSKNTLYLQMNSLRAEDTGIYYCKTYFYSFSYWGQGTLVTVSSASTKGPSVFPLAPSSKSTSGGTAALGCLVKDYFPEPVTVSWNSGALTSGVHTFPAVLQSSGLYSLSSVVTVPSSSLGTQTYICNVNHKPSNTKVDKRV[human IgG1 Fc left out here]
peptide: VEPNCDIHVMWEWECFERL
modifications: tethered at position 1; linker on a combining-site lysine (Lys 99)
In the case of B1, the 50% inhibitory concentration (IC50) amounted to 4 nM.

B2: Compound 6010 (protein, part only; not given: Ang2-binding peptide, part only)
light: B1 light
heavy: B1 heavy
peptide: VEPNCDIHVKWEWECFERL
modifications: K10 = linking residue; linker on a combining-site lysine (Lys 99)
Take B2: the IC50 was determined as 344 nM.
